# Assay results: PubChem BioAssay AID485344 (National Center for Advancing Translational Sciences (NCATS), 2010)
# Among all 340,000 compounds or so, about 6,900 (2%) were called active. No stated cut-off is given here; in the data, active means inhibition above about 30%; inactive means below that, where a call was filed. The list shows a part of the results, in another mix than the full data. Where no call is shown, the source filed none. Some compounds were tested as several samples or in several runs, with calls that do not always agree.
# Biological target: D(2) dopamine receptor (Homo sapiens) (UniProt P14416)
# UniProt P14416, sequence (P14416 whole entry, looked up): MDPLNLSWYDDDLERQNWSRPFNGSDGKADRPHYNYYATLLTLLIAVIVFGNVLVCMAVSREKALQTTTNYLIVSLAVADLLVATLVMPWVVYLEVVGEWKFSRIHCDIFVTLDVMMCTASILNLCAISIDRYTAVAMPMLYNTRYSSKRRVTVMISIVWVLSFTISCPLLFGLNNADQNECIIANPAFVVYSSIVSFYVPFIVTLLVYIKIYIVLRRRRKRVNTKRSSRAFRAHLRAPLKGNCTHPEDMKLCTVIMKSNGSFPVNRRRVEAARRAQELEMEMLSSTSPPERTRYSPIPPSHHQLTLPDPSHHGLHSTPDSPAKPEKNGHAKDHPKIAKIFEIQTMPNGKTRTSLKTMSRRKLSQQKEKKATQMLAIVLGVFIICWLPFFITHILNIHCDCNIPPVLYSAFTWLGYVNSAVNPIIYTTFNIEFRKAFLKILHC
# Assay: HTS Assay for Allosteric Antagonists of the Human D2 Dopamine Receptor: Primary Screen for Antagonists; further: 0% is about no effect
# Settings: HEK293 TREx D2 cells, calcium flux, dopamine EC80; at 10 µM; stronger effect = higher value
# Method in brief: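 Antagonism is scored as inhibition of an EC80 dopamine-evoked calcium signal in a force-coupled, tetracycline-inducible HEK293 T-REx D2 line, with compound present 180 s before agonist.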
row,Compound,inhibition
1,Cc1ccccc1C(=O)Nc1cc2c(cc1N1CCOCC1)n(C)c(=O)n2C,16.9%
2,CCOC(=O)CN(C(=O)CSc1nnc2c(n1)[nH]c1c(C)cc(C)cc12)c1ccccc1,active: 60.8%
3,COc1ccc(OCC(=O)Nc2nnc(S(=O)(=O)N3CCc4ccccc43)s2)cc1,-5.61%
4,Cc1cccc(C)c1Nc1c(-c2ccccc2F)nc2cccc(C)n12,22.7%
5,COc1ccc(OC)c(NC(=O)c2cc3c(n(-c4ccc(Cl)cc4)c2=O)CC(C)(C)CC3=O)c1,-3.74%
6,CN1CCN(C2=Cc3ccccc3Sc3cc(F)ccc32)CC1,active: 80%
7,O=C(CN1CCN(Cc2ccc(F)cc2)C1=O)NCc1ccccc1Cl,-6.73%
8,COc1cccc(-c2nn(C)c3sc(C(=O)NCc4cc(OC)ccc4OC)cc23)c1,1.92%
9,Cc1cc(C)cc(NC(=O)CN(c2cc(C(F)(F)F)ccc2Cl)S(=O)(=O)c2ccccc2)c1,8.61%
10,O=C(CCS(=O)(=O)c1nc(-c2cccs2)cc(C(F)(F)F)n1)Nc1ccc(OC(F)(F)F)cc1,-15.4%
11,COC(=O)c1ccccc1NC(=O)C1=CC(c2ccc(C)cc2)=NS(=O)(=O)N1C,13.8%
12,COc1ccc(C2c3c(oc4ccccc4c3=O)C(=O)N2Cc2ccc3c(c2)OCO3)cc1 (configuration not stated),3.69%
13,CC(C)(C)c1ccc(Cn2c(Cc3ccccc3)nc3ccccc32)cc1,0.0043%
14,CCOc1ccc(-c2nonc2NC(=O)c2oc3ccc(F)cc3c2C)cc1,5.06%
15,CCOC(=O)c1ccccc1NC(=O)CSc1ncc(CO)n1Cc1ccc(C)cc1,-24%
16,Cc1nn2c(=O)cc(CN(C)c3ccccc3)nc2s1,-0.415%
17,c1ccc(-c2noc(CN3CCc4sccc4C3)n2)cc1,active: 35.3%
18,O=C(COc1ccccc1Cl)Nc1cc(-c2ccccc2F)nn1-c1ccccc1,-13.7%
19,COc1ccccc1NC(c1ccc(Cl)cc1)c1nnc(-c2cccc(F)c2)o1 (configuration not stated),7.19%
20,CC(=O)c1ccc(NC(=O)CCc2c(C)nc3c(c(C)nn3-c3ccc(C)cc3)c2C)cc1,4.43%
21,O=C(Cn1c(SCc2cccc(F)c2)nc2cccnc21)Nc1ccc(F)c(Cl)c1,-6.74%
22,COc1ccc(NC(=O)C(c2ccc(C)cc2)N(C)C(=O)/C=C\c2ccc3c(c2)OCO3)cc1 (configuration not stated),-6.01%
23,O=S(=O)(NCc1csc(-c2ccccc2)n1)c1cccc(F)c1,2.37%
24,Cc1ccc(CN(Cc2ccco2)C(=O)COc2ccccc2C)cc1,-21.7%

row,Compound,inhibition
1,COC(=O)Nc1nc2c(C)cccc2s1,active: 37.9%
2,CCOC(=O)c1ccc(NC(=O)CCc2c(C)nc3c(c(C)nn3-c3ccccc3)c2C)cc1,-12.9%
3,COc1cccc(C2=C(C(C)=O)Sc3nncn3N2C(C)=O)c1,-1.16%
4,COc1ccc(S(=O)(=O)N(C)C)cc1NC(=O)CSC(C)C(=O)Nc1cc(C)on1 (configuration not stated),active: 72.4%
5,Cc1cc(Cl)ccc1OCCCC(=O)NCCCn1ccnc1,active: 35.7%
6,CNS(=O)(=O)c1cn(CC(=O)N2CCN(c3ccccc3F)CC2)cc1S(=O)(=O)NC,-9.39%
7,CCc1ccc(OC(C)c2nc(-c3ccc(-n4cccc4)cc3)no2)cc1 (configuration not stated),-4.03%
8,COCc1nc2cccnc2n1C1CCN(S(=O)(=O)N(C)C)CC1,5.08%
9,CCOc1ccc(CCNc2ncnc3onc(-c4ccc(Cl)cc4)c23)cc1OCC,-13.7%
10,Cn1cnc(S(=O)(=O)N2CCC(C(=O)NCc3ccccc3Cl)CC2)c1,13.2%
11,Cc1ncc([N+](=O)[O-])n1CCO,active: 38.2%
12,COc1cccc(NC(=O)CSc2nc3ccc(NC(=O)c4cccs4)cc3s2)c1,-7.29%
13,CCOC(=O)C1(CCOC)CCN(Cc2nc(C(C)C)cs2)CC1,active: 32.8%
14,COc1cccc(-c2nnc(SCC(=O)NC3CCS(=O)(=O)C3)n2C)c1 (configuration not stated),active: 39%
15,CCOC(=O)c1c(NC(=O)/C=C/c2ccc(C(C)C)cc2)sc2c1CCC2,-11.6%
16,Cc1ccc(NC(=O)Nc2nnc(N3CCCC3)s2)cc1,-3.75%
17,Cc1cccc(C(=O)Nc2sc3c(c2C(=O)N2CCCCC2)CCC(C)C3)c1 (configuration not stated),-2.29%
18,CC1CCCC(NC(=O)c2cn(C)c3ccc(S(=O)(=O)N4CCCC4)cc3c2=O)C1C (configuration not stated),active: 30.8%
19,CCN(CC)CCNC(=O)c1c(C)oc2ncn(C)c(=O)c12,-8.72%
20,O=C(CCc1cn(Cc2ccc(F)cc2)c2ccccc12)NCCc1ccc(Cl)cc1,16.8%
21,Cc1cccc(CN2CCC(CNC(=O)c3c(C)oc4ncnc(N5CCCCC5)c34)CC2)c1,5.91%
22,CC(Sc1nc(=O)cc(N)n1CCc1ccccc1)C(=O)Nc1ccc(Cl)cc1 (configuration not stated),-0.172%
23,CSc1nsc(SCC(=O)Nc2ccc(C(N)=O)cc2)n1,active: 37.4%
